# In the supplement of paper PMC8728848:
# The list shows a part of the results.
# Legend:
# Test in all cases: glycan array binding signal (z-score within array); higher = stronger binding
# Conditions in all cases: glycan notation: IUPAC condensed, linker removed
# [1] = target: GalNAc(a1-3)GalNAc(b1-3)Gal(a1-4)Gal(b1-4)GlcNAc
# Summary of the method: (§1)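 The binding signal is a Z-score computed within each array. Data were drawn from 3228 arrays in the Consortium for Functional Glycomics database, restricted to those with a known protein sequence. Scores were averaged over arrays of the same protein sequence at different concentrations or buffers, and over linkers, and negative values can be taken as non-binding.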
# GalNAc(b1-3)Gal = target: GalNAc(b1-3)Gal
# Summary of the method: as §1
# [2] = target: GalNAc(b1-3)Gal(a1-4)Gal(b1-4)GlcNAc
# Summary of the method: as §1
# [3] = target: GalNAc(b1-3)Gal(a1-4)Gal(b1-4)GlcNAc(b1-3)Gal(b1-4)Glc
# Summary of the method: as §1
# [4] = target: GalNAc(b1-3)Gal(a1-6)Gal(b1-4)Glc
# Summary of the method: as §1
# GalNAc(b1-3)GalNAc = target: GalNAc(b1-3)GalNAc
# Summary of the method: as §1
# GalNAc(b1-4)Gal(b1-4)Glc = target: GalNAc(b1-4)Gal(b1-4)Glc
# Summary of the method: as §1
# GalNAc(b1-4)GlcNAc = target: GalNAc(b1-4)GlcNAc
# Summary of the method: as §1
# [5] = target: GalNAc(b1-4)GlcNAc(b1-2)Man(a1-3)[GalNAc(b1-4)GlcNAc(b1-2)Man(a1-6)]Man(b1-4)GlcNAc(b1-4)GlcNAc
# Summary of the method: as §1
# GalNAc(b1-6)GalNAc = target: GalNAc(b1-6)GalNAc
# Summary of the method: as §1
# Glc(a1-4)Glc = target: Glc(a1-4)Glc
# Summary of the method: as §1
# [6] = target: Glc(a1-4)Glc(a1-4)Glc(a1-4)Glc
# Summary of the method: as §1
# Glc(a1-6)Glc(a1-6)Glc = target: Glc(a1-6)Glc(a1-6)Glc
# Summary of the method: as §1
# [7] = target: Glc(a1-6)Glc(a1-6)Glc(a1-6)Glc
# Summary of the method: as §1
# Glc(b1-4)Glc = target: Glc(b1-4)Glc
# Summary of the method: as §1
# Glc(b1-6)Glc = target: Glc(b1-6)Glc
# Summary of the method: as §1
# GlcA(b1-3)Gal = target: GlcA(b1-3)Gal
# Summary of the method: as §1
# GlcA(b1-3)GlcNAc = target: GlcA(b1-3)GlcNAc
# Summary of the method: as §1
# GlcA(b1-6)Gal = target: GlcA(b1-6)Gal
# Summary of the method: as §1
# [8] = target: GlcNAc(a1-3)Gal(b1-4)GlcNAc
# Summary of the method: as §1
# [9] = target: GlcNAc(a1-4)Gal(b1-3)GlcNAc
# Summary of the method: as §1
# [10] = target: GlcNAc(a1-4)Gal(b1-4)GalNAc
# Summary of the method: as §1
# [11] = target: GlcNAc(a1-4)Gal(b1-4)GlcNAc
# Summary of the method: as §1
# [12] = target: GlcNAc(a1-4)Gal(b1-4)GlcNAc(b1-3)Gal(b1-4)Glc
# Summary of the method: as §1
# [13] = target: GlcNAc(a1-4)Gal(b1-4)GlcNAc(b1-3)Gal(b1-4)GlcNAc
# Summary of the method: as §1
# [14] = target: GlcNAc(a1-4)Gal(b1-4)GlcNAc(b1-3)Gal(b1-4)GlcNAc(b1-3)Gal(b1-4)GlcNAc
# Summary of the method: as §1
# [15] = target: GlcNAc(a1-4)Gal(b1-4)GlcNAc(b1-3)Gal(b1-4)[Fuc(a1-3)]GlcNAc(b1-3)Gal(b1-4)[Fuc(a1-3)]GlcNAc
# Summary of the method: as §1
# [16] = target: GlcNAc(a1-6)Gal(b1-4)GlcNAc
# Summary of the method: as §1
# [17] = target: GlcNAc(b1-2)Gal(b1-3)GalNAc
# Summary of the method: as §1
# [18] = target: GlcNAc(b1-2)Man(a1-3)[GlcNAc(b1-2)Man(a1-6)]Man(b1-4)GlcNAc(b1-4)GlcNAc
# Summary of the method: as §1
# [19] = target: GlcNAc(b1-2)Man(a1-3)[GlcNAc(b1-2)Man(a1-6)]Man(b1-4)GlcNAc(b1-4)[Fuc(a1-6)]GlcNAc
# Summary of the method: as §1
# [20] = target: GlcNAc(b1-2)Man(a1-3)[GlcNAc(b1-4)][GlcNAc(b1-2)Man(a1-6)]Man(b1-4)GlcNAc(b1-4)GlcNAc
# Summary of the method: as §1
# [21] = target: GlcNAc(b1-2)[GlcNAc(b1-4)]Man(a1-3)[GlcNAc(b1-2)Man(a1-6)]Man(b1-4)GlcNAc(b1-4)GlcNAc
# Summary of the method: as §1
# [22] = target: GlcNAc(b1-2)[GlcNAc(b1-4)]Man(a1-3)[GlcNAc(b1-4)][GlcNAc(b1-2)Man(a1-6)]Man(b1-4)GlcNAc(b1-4)GlcNAc
# Summary of the method: as §1
# [23] = target: GlcNAc(b1-2)[GlcNAc(b1-4)]Man(a1-3)[GlcNAc(b1-4)][GlcNAc(b1-2)[GlcNAc(b1-6)]Man(a1-6)]Man(b1-4)GlcNAc(b1-4)GlcNAc
# Summary of the method: as §1
# [24] = target: GlcNAc(b1-2)[GlcNAc(b1-6)]Man(a1-6)[GlcNAc(b1-2)Man(a1-3)]Man(b1-4)GlcNAc(b1-4)GlcNAc
# Summary of the method: as §1
# [25] = target: GlcNAc(b1-2)[GlcNAc(b1-6)]Man(a1-6)[GlcNAc(b1-2)Man(a1-3)][GlcNAc(b1-4)]Man(b1-4)GlcNAc(b1-4)GlcNAc
# Summary of the method: as §1
# GlcNAc(b1-3)Gal = target: GlcNAc(b1-3)Gal
# Summary of the method: as §1
binder,measurement,setting,value
"AFL (Aspergillus fumigatus), Q4WW81 (protein) STPGAQQVLFRTGIAAVNLTNHLRVYFQDVYGSIRESLYEGSWANGTEKNVIGNAKLGSPVAATSKELKHIRVYTLTEGNTLQEFAYDSGTGWYNGGLGGAKFQVAPYSRIAAVFLAGTDALQLRIYAQKPDNTIQEYMWNGDGWKEGTNLGGALPGTGIGATSFRYTDYNGPSIRIWFQTDDLKLVQRAYDPHKGWYPDLVTIFDRAPPRTAIAATSFGAGNSSIYMRIYFVNSDNTIWQVCWDHGKGYHDKGTITPVIQGSEVAIISWGSFANNGPDLRLYFQNGTYISAVSEWVWNRAHGSQLGRSALPPA",glycan array binding signal (z-score),[1],-0.377
same,glycan array binding signal (z-score),GalNAc(b1-3)Gal,-0.386
same,glycan array binding signal (z-score),[2],-0.377
same,glycan array binding signal (z-score),[3],-0.388
same,glycan array binding signal (z-score),[4],-0.376
same,glycan array binding signal (z-score),GalNAc(b1-3)GalNAc,-0.38
same,glycan array binding signal (z-score),GalNAc(b1-4)Gal(b1-4)Glc,-0.362
same,glycan array binding signal (z-score),GalNAc(b1-4)GlcNAc,-0.385
same,glycan array binding signal (z-score),[5],-0.378
same,glycan array binding signal (z-score),GalNAc(b1-6)GalNAc,-0.389
same,glycan array binding signal (z-score),Glc(a1-4)Glc,-0.386
same,glycan array binding signal (z-score),[6],-0.374
same,glycan array binding signal (z-score),Glc(a1-6)Glc(a1-6)Glc,-0.382
same,glycan array binding signal (z-score),[7],-0.371
same,glycan array binding signal (z-score),Glc(b1-4)Glc,-0.376
same,glycan array binding signal (z-score),Glc(b1-6)Glc,-0.388
same,glycan array binding signal (z-score),GlcA(b1-3)Gal,-0.385
same,glycan array binding signal (z-score),GlcA(b1-3)GlcNAc,-0.361
same,glycan array binding signal (z-score),GlcA(b1-6)Gal,-0.391
same,glycan array binding signal (z-score),[8],-0.382
same,glycan array binding signal (z-score),[9],-0.377
same,glycan array binding signal (z-score),[10],-0.384
same,glycan array binding signal (z-score),[11],-0.382
same,glycan array binding signal (z-score),[12],-0.385
same,glycan array binding signal (z-score),[13],-0.31
same,glycan array binding signal (z-score),[14],-0.384
same,glycan array binding signal (z-score),[15],0.788
same,glycan array binding signal (z-score),[16],-0.371
same,glycan array binding signal (z-score),[17],-0.383
same,glycan array binding signal (z-score),[18],-0.371
same,glycan array binding signal (z-score),[19],1.17
same,glycan array binding signal (z-score),[20],-0.38
same,glycan array binding signal (z-score),[21],-0.377
same,glycan array binding signal (z-score),[22],-0.381
same,glycan array binding signal (z-score),[23],-0.387
same,glycan array binding signal (z-score),[24],-0.383
same,glycan array binding signal (z-score),[25],-0.384
same,glycan array binding signal (z-score),GlcNAc(b1-3)Gal,-0.361
